{"source": "patent US20230035617A1", "binders": {"B1": {"name": "mAb-TFPI-106 (anti-TFPI antibody) (antibody, human IgG1, lambda)", "heavy": "[about 100 residues not shown]LGATSLSAFDIWGQGTMVTVSSASTKGPSVFPLAPSSKSTSGGTAALGCLVKDYFPEPVTVSWNSGALTSGVHTFPAVLQSSGLYSLSSVVTVPSSSLGTQTYICNVNHKPSNTKVDKKVEPKSCDKTHTCPPCPAPEAAGAPSVFLFPPKPKDTLMISRTPEVTCVVVDVSHEDPEVKFNWYVDGVEVHNAKTKPREEQYNSTYRVVSVLTVLHQDWLNGKEYKCKVSNKALPAPIEKTISKAKGQPREPQVYTLPPSREEMTKNQVSLTCLVKGFYPSDIAVEWESNGQPENNYKTTPPVLDSDGSFFLYSKLTVDKSRWQQGNVFSCSVMHEALHNHYTQKSLSLSPG", "light": "QSVLTQPPSVSGAPGQRVTISCTGSSSNIGAGYDVHWYQQLPGTAPKLLIYGNSNRPSGVPDRFSGSKSGTSASLAITGLQAEDEADYYCQSYDSSLSGSGVFGGGTKLTVLGQPKAAPSVTLFPPSSEELQANKATLVCLISDFYPGAVTVAWKADSSPVKAGVETTTPSKQSNNKYAASSYLSLTPEQWKSHRSYSCQVTHEGSTVEKTVAPTECS"}}, "target": "Tissue Factor Pathway Inhibitor (TFPI), P10646", "assay": "cell-based or functional assay"}
{"binder": "B1", "values": [{"measurement": "% Relative Potency by inhibition assay; formulation A (Target); 0 months", "result": 108, "unit": "%"}, {"measurement": "% Relative Potency by inhibition assay; formulation A (Target); 5° C., 6 months", "result": 104, "unit": "%"}, {"measurement": "% Relative Potency by inhibition assay; formulation A (Target); 25° C., 6 months", "result": 97, "unit": "%"}, {"measurement": "% Relative Potency by inhibition assay; formulation A (Target); 40° C., 6 months", "result": 86, "unit": "%"}, {"measurement": "% Relative Potency by inhibition assay; formulation B (Low/High); 0 months", "result": 102, "unit": "%"}, {"measurement": "% Relative Potency by inhibition assay; formulation B (Low/High); 5° C., 6 months", "result": 110, "unit": "%"}, {"measurement": "% Relative Potency by inhibition assay; formulation B (Low/High); 25° C., 6 months", "result": 106, "unit": "%"}, {"measurement": "% Relative Potency by inhibition assay; formulation B (Low/High); 40° C., 6 months", "result": 97, "unit": "%"}, {"measurement": "% Relative Potency by inhibition assay; formulation C (High/Low); 0 months", "result": 101, "unit": "%"}, {"measurement": "% Relative Potency by inhibition assay; formulation C (High/Low); 5° C., 6 months", "result": 110, "unit": "%"}, {"measurement": "% Relative Potency by inhibition assay; formulation C (High/Low); 25° C., 6 months", "result": 109, "unit": "%"}, {"measurement": "% Relative Potency by inhibition assay; formulation C (High/Low); 40° C., 6 months", "result": 86, "unit": "%"}, {"measurement": "% Relative Potency by inhibition assay; formulation D (Low/Low); 0 months", "result": 101, "unit": "%"}, {"measurement": "% Relative Potency by inhibition assay; formulation D (Low/Low); 5° C., 6 months", "result": 108, "unit": "%"}, {"measurement": "% Relative Potency by inhibition assay; formulation D (Low/Low); 25° C., 6 months", "result": 90, "unit": "%"}, {"measurement": "% Relative Potency by inhibition assay; formulation D (Low/Low); 40° C., 6 months", "result": 88, "unit": "%"}, {"measurement": "% Relative Potency by inhibition assay; formulation E (High/High); 0 months", "result": 102, "unit": "%"}, {"measurement": "% Relative Potency by inhibition assay; formulation E (High/High); 5° C., 6 months", "result": 101, "unit": "%"}, {"measurement": "% Relative Potency by inhibition assay; formulation E (High/High); 25° C., 6 months", "result": 111, "unit": "%"}, {"measurement": "% Relative Potency by inhibition assay; formulation E (High/High); 40° C., 6 months", "result": 93, "unit": "%"}, {"measurement": "% Relative Potency by inhibition assay; formulation F (Target, No PS80); 0 months", "result": 99, "unit": "%"}, {"measurement": "% Relative Potency by inhibition assay; formulation F (Target, No PS80); 5° C., 6 months", "result": 99, "unit": "%"}, {"measurement": "% Relative Potency by inhibition assay; formulation F (Target, No PS80); 25° C., 6 months", "result": 114, "unit": "%"}, {"measurement": "% Relative Potency by inhibition assay; formulation F (Target, No PS80); 40° C., 6 months", "result": 93, "unit": "%"}, {"measurement": "Relative Potency (%) by inhibition assay; 150 mg/mL, 1 mL PFS; 25° C./60% RH; 0 months", "result": 106, "unit": "%"}, {"measurement": "Relative Potency (%) by inhibition assay; 150 mg/mL, 1 mL PFS; 25° C./60% RH; 1 month", "result": 122, "unit": "%"}, {"measurement": "Relative Potency (%) by inhibition assay; 150 mg/mL, 1 mL PFS; 25° C./60% RH; 3 months", "result": 109, "unit": "%"}, {"measurement": "Relative Potency (%) by inhibition assay; 150 mg/mL, 1 mL PFS; 25° C./60% RH; 6 months", "result": 98, "unit": "%"}, {"measurement": "Relative Potency (%) by inhibition assay; 150 mg/mL, 1 mL PFS; 25° C./60% RH; 12 months", "result": 99, "unit": "%"}, {"measurement": "Relative Potency (%) by inhibition assay; 150 mg/mL, 1 mL PFS; 40° C./75% RH; 0 months", "result": 106, "unit": "%"}, {"measurement": "Relative Potency (%) by inhibition assay; 150 mg/mL, 1 mL PFS; 40° C./75% RH; 1 month", "result": 106, "unit": "%"}, {"measurement": "Relative Potency (%) by inhibition assay; 150 mg/mL, 1 mL PFS; 40° C./75% RH; 3 months", "result": 96, "unit": "%"}, {"measurement": "Relative Potency (%) by inhibition assay; 150 mg/mL, 2.25 mL PFS; 25° C./60% RH; 0 months", "result": 108, "unit": "%"}, {"measurement": "Relative Potency (%) by inhibition assay; 150 mg/mL, 2.25 mL PFS; 25° C./60% RH; 1 month", "result": 110, "unit": "%"}, {"measurement": "Relative Potency (%) by inhibition assay; 150 mg/mL, 2.25 mL PFS; 25° C./60% RH; 3 months", "result": 110, "unit": "%"}, {"measurement": "Relative Potency (%) by inhibition assay; 150 mg/mL, 2.25 mL PFS; 25° C./60% RH; 6 months", "result": 100, "unit": "%"}, {"measurement": "Relative Potency (%) by inhibition assay; 150 mg/mL, 2.25 mL PFS; 25° C./60% RH; 12 months", "result": 87, "unit": "%"}, {"measurement": "Relative Potency (%) by inhibition assay; 150 mg/mL, 2.25 mL PFS; 40° C./75% RH; 0 months", "result": 108, "unit": "%"}, {"measurement": "Relative Potency (%) by inhibition assay; 150 mg/mL, 2.25 mL PFS; 40° C./75% RH; 1 month", "result": 106, "unit": "%"}, {"measurement": "Relative Potency (%) by inhibition assay; 150 mg/mL, 2.25 mL PFS; 40° C./75% RH; 3 months", "result": 95, "unit": "%"}, {"measurement": "Relative Potency (%) by inhibition assay; 150 mg/mL, Vial; 25° C./60% RH; 0 months", "result": 98, "unit": "%"}, {"measurement": "Relative Potency (%) by inhibition assay; 150 mg/mL, Vial; 25° C./60% RH; 1 month", "result": 96, "unit": "%"}, {"measurement": "Relative Potency (%) by inhibition assay; 150 mg/mL, Vial; 25° C./60% RH; 3 months", "result": 95, "unit": "%"}, {"measurement": "Relative Potency (%) by inhibition assay; 150 mg/mL, Vial; 25° C./60% RH; 6 months", "result": 96, "unit": "%"}, {"measurement": "Relative Potency (%) by inhibition assay; 150 mg/mL, Vial; 25° C./60% RH; 12 months", "result": 91, "unit": "%"}, {"measurement": "Relative Potency (%) by inhibition assay; 150 mg/mL, Vial; 25° C./60% RH; 24 months", "result": 97, "unit": "%"}, {"measurement": "Relative Potency (%) by inhibition assay; 150 mg/mL, Vial; 40° C./75% RH; 0 months", "result": 98, "unit": "%"}, {"measurement": "Relative Potency (%) by inhibition assay; 150 mg/mL, Vial; 40° C./75% RH; 12 months", "result": 83, "unit": "%"}]}
